In article PMC4336329 (PLoS ONE, 2015):
Among all 310,000 compounds or so, about 14,000 (4.5%) showed an effect of 50% or more. Effects have a minus sign here. This is one part of the list.

These compounds were tested against human ether-à-go-go-related gene (hERG) potassium channel (human, UniProt Q12809) (assay: primary screen, population patch clamp on CHO cells stably expressing hERG).
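Note: peak tail current of the secondary pulse compared with the same well before compound.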

human ether-à-go-go-related gene (hERG) potassium channel, sequence (Q12809 whole entry, looked up): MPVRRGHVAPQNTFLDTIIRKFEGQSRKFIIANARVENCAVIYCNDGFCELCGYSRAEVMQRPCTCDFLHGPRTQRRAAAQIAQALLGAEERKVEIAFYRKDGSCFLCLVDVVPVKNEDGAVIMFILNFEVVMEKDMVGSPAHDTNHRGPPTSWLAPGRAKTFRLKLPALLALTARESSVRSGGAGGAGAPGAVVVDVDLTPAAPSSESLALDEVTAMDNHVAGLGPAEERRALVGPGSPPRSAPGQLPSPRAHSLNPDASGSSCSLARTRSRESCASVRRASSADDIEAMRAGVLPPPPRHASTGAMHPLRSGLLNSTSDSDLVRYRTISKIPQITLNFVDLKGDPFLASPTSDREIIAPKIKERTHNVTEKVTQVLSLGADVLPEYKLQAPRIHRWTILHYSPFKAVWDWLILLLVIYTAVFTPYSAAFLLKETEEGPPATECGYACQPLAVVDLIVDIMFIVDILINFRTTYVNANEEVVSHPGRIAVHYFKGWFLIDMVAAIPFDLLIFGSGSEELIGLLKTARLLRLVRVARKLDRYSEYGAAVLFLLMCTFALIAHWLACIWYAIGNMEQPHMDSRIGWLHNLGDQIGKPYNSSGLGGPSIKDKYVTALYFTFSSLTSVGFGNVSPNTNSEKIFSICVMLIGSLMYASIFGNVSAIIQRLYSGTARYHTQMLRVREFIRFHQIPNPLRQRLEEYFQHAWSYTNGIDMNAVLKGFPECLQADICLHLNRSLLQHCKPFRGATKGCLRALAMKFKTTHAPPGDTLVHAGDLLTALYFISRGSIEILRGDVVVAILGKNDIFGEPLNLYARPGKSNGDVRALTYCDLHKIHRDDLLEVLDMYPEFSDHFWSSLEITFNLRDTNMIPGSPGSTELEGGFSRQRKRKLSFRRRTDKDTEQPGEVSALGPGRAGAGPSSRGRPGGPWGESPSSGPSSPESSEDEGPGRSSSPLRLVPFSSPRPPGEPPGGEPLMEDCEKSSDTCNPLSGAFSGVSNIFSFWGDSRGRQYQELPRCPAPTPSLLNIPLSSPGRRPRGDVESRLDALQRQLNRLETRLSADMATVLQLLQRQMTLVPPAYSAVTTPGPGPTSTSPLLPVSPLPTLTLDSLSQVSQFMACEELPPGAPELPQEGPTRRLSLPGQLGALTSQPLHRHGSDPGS

SMILES | hERG current change (%, negative = inhibition) at 10uM
Cc1ccc(OCCCNCCO)c(Br)c1.O=C(O)C(=O)O | -10.5%
Cc1cnc(C(=O)OCC(=O)NCCc2ccccc2)cn1 | -3.4%
Cc1cc(C)c(NC(=O)CNC(=O)COC(=O)CN2C(=O)NC3(CCCC3)C2=O)c(C)c1 | 15.9%
CCCOc1ccc(N/C=C/C(=O)c2ccc(OC)c(OC)c2)cc1 | -8.4%
CCOC(=O)C1CCN(C(=O)c2ccc(Cl)c(S(=O)(=O)N3CCCC3)c2)CC1 | -13.8%
Cc1cccc2nc3c(nc12)-c1ccccc1C3=O | 21%
Cc1ccc(N(Cc2ccccc2)C(=O)c2cc(S(=O)(=O)N3CCOCC3)ccc2N2CCCC2)cc1 | 5.59%
N#Cc1ccsc1NC(=O)CN1CCCCC1 | -5.6%
COc1cc(O)c2c(c1)OC(c1ccc(O)cc1)CC2=O (stereo not drawn) | -14.9%
CCOc1ccc(OCCOCCN2CCCC2)cc1.O=C(O)C(=O)O | 0.376%
CCOc1cccc(C(=O)Nc2cc(-c3nn4c(C)nnc4s3)ccc2C)c1 | -21.2%
CC(C)CCCN1C(Nc2ccccc2)=NC[C@@H]1C | -11.4%
CCOc1cc(CNc2cccc3ccccc23)cc(Br)c1OCC(=O)NC(C)(C)C | -7.17%
O=C(CN1C(=O)S/C(=C/c2ccncc2)C1=O)N1CCOCC1 | -33.7%
C=Cc1ccc(Cn2nc(-c3ccccc3)ccc2=O)cc1 | -2.93%
CC(C)CC(=O)Nc1cc2c3c(c1)C(C)C(=O)N3CCC2 (stereo not drawn) | 17.5%
COc1ccc(NC(=O)CC2C(=O)N(c3cccc(OC)c3)C(=O)N2C2CCCCC2)cc1 (stereo not drawn) | 13.4%
COc1ccc(CCC(=O)NNC(=O)c2ccc(F)cc2)cc1 | 6.02%
O=C(CSC1CC(=O)N(CC(c2ccccc2)c2ccccc2)C1=O)Nc1ccc(Cl)cc1 (stereo not drawn) | -5.42%
COC(=O)c1sccc1NC(=O)c1ccc(OC)cc1 | 17.8%
O=C(CNc1cccc([N+](=O)[O-])c1)N/N=C/c1ccc([N+](=O)[O-])o1 | -36%
CCOc1ccc(NC(=O)CSc2nnc(Cn3cnc([N+](=O)[O-])n3)n2CC)cc1 | 12.4%

SMILES | hERG current change (%, negative = inhibition) at 10uM
CN(C)S(=O)(=O)c1cccc(NC(=O)Cc2ccc(Cl)cc2)c1 | -17.3%
O=C(NC(=S)Nc1cccc(O)c1)c1cncc(Br)c1 | 11.6%
O=C(COc1ccc2ccccc2c1)NNC(=O)Cc1cccc2ccccc12 | 6.39%
O=C(NCCc1ccc(Cl)cc1)c1ccc2c(c1)OCO2 | -2.49%
CC(OC(=O)c1ccc(NC(=O)CC#N)cc1)C(=O)NCCC1=CCCCC1 (stereo not drawn) | -0.851%
CN(C)CCCn1cnc2c1c(=O)[nH]c(=O)n2Cc1ccccc1.Cl | 13.9%
O=C(O)CC1(CC(=O)Nc2ccc(F)c(Cl)c2)CCCCC1 | 17.9%
COc1ccc(OCCCC(=O)ON=C(N)c2ccccc2Cl)cc1 | 8.61%
COCCNC(=O)c1onc(CSc2cccc(OC)c2)c1C(=O)NCCOC | -7.98%
O=C(c1ccc(Cl)c(Cl)c1)N1CCN(c2ccccn2)CC1 | -15.1%
O=C(O)c1nn(-c2ccccc2)nc1-c1nn(-c2ccccc2)nc1C(=O)O | 19.7%
COc1ccc(S(=O)(=O)Nc2ccccc2C(=O)NCc2cccnc2)cc1 | 8.08%
CCc1ccc(N(C(=O)CNC(=O)c2ccco2)C(C(=O)NC2CCCC2)c2cccnc2)cc1 (stereo not drawn) | 0.178%
COc1cc2c(cc1NC(=O)COC(=O)[C@@H](NC(=O)c1ccccc1F)C(C)C)oc1ccccc12 | 9.13%
CC(=O)c1cc2c(cc1NS(=O)(=O)c1ccc(C)cc1)OCCO2 | 4.34%
CC(C)CC(NC(=O)c1ccc(Cl)cc1)C(=O)O (stereo not drawn) | 8.81%
COc1ccc(OCCCc2c(C)n[nH]c2C)cc1 | -3.61%
CCCCCOC(=O)c1ccc(NC(=O)c2cccc(NC(=O)c3ccccc3C(=O)O)c2)cc1 | 24.8%
CCN(CC)c1ccc(NC(=O)CCCCCN2C(=O)c3ccccc3C2=O)cc1 | -25%
COc1ccccc1-n1nnnc1SCC(=O)NC1CC1 | -9.16%
COC(=O)C1CN(C(=O)COc2ccc(C)cc2)c2ccccc2O1 (stereo not drawn) | -11.9%
S=C1NC2(CCCCC2)NC12CCCCC2 | 18.4%

SMILES | hERG current change (%, negative = inhibition) at 10uM
CCOC(=O)c1ccc([N+](=O)[O-])cc1NC(C)=O | 3.85%
CCN(CC)C(=O)CSc1nc(-c2ccccc2)ccc1C#N | -8.25%
N#CC(c1nc2ccccc2nc1OCCO)S(=O)(=O)c1ccccc1 (stereo not drawn) | 12.6%
Cc1cccc(CN2CCCC(C(=O)c3cccc(OC(C)C)c3)C2)n1 (stereo not drawn) | -40%
CCN(CC)S(=O)(=O)c1cccc(-c2nnc(SC(C)C(=O)NCCC3=CCCCC3)o2)c1 (stereo not drawn) | -12.2%
O=C(CCCn1nnc(-c2cccnc2)n1)c1ccc(F)cc1 | -27.2%
CN(C)C1(CNC(=O)c2ccc(Cl)c(S(=O)(=O)NCc3ccco3)c2)CCCCC1 | -37.3%
CCn1cc([N+](=O)[O-])c(C(=O)N2CCN(C(=O)c3ccco3)CC2)n1 | 7.17%
COc1ccc(CC(=O)N2CCN(S(=O)(=O)c3cccs3)CC2)cc1OC | -3.99%
C=CCn1c(SCC(=O)N(CCC)C2CCS(=O)(=O)C2)nnc1-c1ccccc1OC (stereo not drawn) | -5.39%
CCN1C(=O)N[C@@H](CCc2ccccc2)[C@H](C(=O)OC)[C@H]1C | 1.59%
O=C(NC(=S)Nc1ccc(NC(=O)c2ccco2)cc1)c1ccccc1 | 16.4%
Cc1ccc(S(=O)(=O)NCC(=O)NCC(=O)N(C)Cc2ccc3ccccc3c2)cc1C | 2.62%
CCCNC(=O)COC(=O)/C=C/c1ccc(C)o1 | 5.06%
COc1ccc(C(=O)Nc2ccc(N3CCCCCC3)cc2)cc1S(=O)(=O)N1CCOCC1 | -40.1%
CCCCN(C)CCNC(=O)c1cc2c(=O)[nH]c3ccccc3c2n1C | -13.2%
O=C(Cn1nc(Cc2ccncc2)c2ccccc2c1=O)N1CCc2ccccc2C1 | -44.4%
O=C(NCc1ccc(Cl)cc1)C1CCN(S(=O)(=O)c2cccnc2)CC1 | -25.7%
O=C(Nc1cccc2ccccc12)N1CCN(c2ccccc2)CC1 | -2.93%
CC(C)O.COc1cc(/C=N/NC(=O)c2ccc(O)cc2)ccc1Oc1ccc([N+](=O)[O-])cn1 | -32%
Cl.OC(COCCOc1ccc(Br)cc1)CN1CCCCC1 (stereo not drawn) | -37.1%
Cc1cc(C(F)F)n2nc(C(=O)O)nc2n1 | -0.987%

SMILES | hERG current change (%, negative = inhibition) at 10uM
CCOc1ccccc1NC(=O)C1Cc2ccccc2CN1S(C)(=O)=O (stereo not drawn) | 8.4%
Cn1cc(Br)c(C(=O)NN2C(=O)C3C(C2=O)C2C=CC3C23CC3)n1 (stereo not drawn) | 39.6%
CCNC(=O)CSc1nc2cc([N+](=O)[O-])ccc2n1-c1cccc(C(F)(F)F)c1 | -35.8%
O=c1c2cc([N+](=O)[O-])ccc2nc2n1CCC2 | -7.93%
CCCOc1ccc(N2C(=O)CC(N(CCc3ccc(OC)cc3)C(=O)/C=C/C(=O)O)C2=O)cc1 (stereo not drawn) | 11.2%
CCOc1ccc(/C=N/OCC(=O)Nc2ccc3c(c2)OCO3)cc1 | -40.5%
COc1ccccc1C(=O)NCC(c1ccco1)N1CCc2ccccc21 (stereo not drawn) | -6.41%
CC1CCN(Cc2cc(=O)oc3ccc(C(C)C)cc23)CC1.Cl | 9.68%
CCOc1ccc(CCNC(=O)COC(=O)CCS(=O)(=O)c2ccc(C)cc2)cc1OCC | 13.5%
CSc1ncccc1C(=O)OCC(=O)NC(C)(C)C | 10.5%
Cn1nnnc1Sc1ncnc2scc(-c3cc4ccccc4o3)c12 | 3.47%
Cc1ccc(C)c(NC(=O)CN(C)C(=O)C2CCCC2)c1 | 15.9%
Cc1cc(NC(=O)CSc2nc3c(C)cccc3cc2C)no1 | 17.7%
CCN(CC(=O)NCCc1ccc(F)cc1)Cc1nc2ccccc2c(=O)[nH]1 | -50.7%
COc1ccc(NC(=O)c2ccc3c(c2)C(=O)N(Cc2cccnc2)C3=O)cc1 | 10.9%
CC(=NCc1ccco1)c1c(O)n(-c2ccccc2)c(=O)[nH]c1=O | 4.82%
Cc1cccn2c(=O)c3cc(C(=O)NCCN4CCOCC4)n(C)c3nc12 | -3.18%
CN(C)c1nc(OCCNC(=O)COc2ccc(Cl)cc2Cl)nc(N(C)C)n1 | -17.1%
Cc1cc(C)c(NS(=O)(=O)c2ccc3c(c2)n(C)c(=O)n3C)c(C)c1 | 0.287%
Cc1cccc(-n2cc(CN(C)Cc3nccn3C)c(-c3cccc(F)c3)n2)c1 | -6.01%
S=C1COC(c2ccccc2)N1c1ccccc1 (stereo not drawn) | 5.51%
